According to PubChem BioAssay AID1768 (National Center for Advancing Translational Sciences (NCATS), 2009):
The whole screen tested about 270,000 compounds, of which about 620 (0.23%) were called active. Calls follow the shape of the dose curve; as a rule, active = well fitted inhibition curve with a large enough effect in the polarisation, with a control signal flat (not every such curve was filed as active); inconclusive = small, poorly fitted or top-dose-only effect, or effect the other way, or a change in a side signal; inactive = no such curve, though single readings can be large or run the other way; the % refers to the polarisation. The inconclusive results got no clear call from the source. Potencies beside an inconclusive call are fits to weak or partial responses and may not hold up. “Side channel” marks fits to a control or component signal instead of the main read-out.

Target: Menin (Homo sapiens) (UniProt O00255)
Sequence of UniProt O00255 (O00255 whole entry, looked up): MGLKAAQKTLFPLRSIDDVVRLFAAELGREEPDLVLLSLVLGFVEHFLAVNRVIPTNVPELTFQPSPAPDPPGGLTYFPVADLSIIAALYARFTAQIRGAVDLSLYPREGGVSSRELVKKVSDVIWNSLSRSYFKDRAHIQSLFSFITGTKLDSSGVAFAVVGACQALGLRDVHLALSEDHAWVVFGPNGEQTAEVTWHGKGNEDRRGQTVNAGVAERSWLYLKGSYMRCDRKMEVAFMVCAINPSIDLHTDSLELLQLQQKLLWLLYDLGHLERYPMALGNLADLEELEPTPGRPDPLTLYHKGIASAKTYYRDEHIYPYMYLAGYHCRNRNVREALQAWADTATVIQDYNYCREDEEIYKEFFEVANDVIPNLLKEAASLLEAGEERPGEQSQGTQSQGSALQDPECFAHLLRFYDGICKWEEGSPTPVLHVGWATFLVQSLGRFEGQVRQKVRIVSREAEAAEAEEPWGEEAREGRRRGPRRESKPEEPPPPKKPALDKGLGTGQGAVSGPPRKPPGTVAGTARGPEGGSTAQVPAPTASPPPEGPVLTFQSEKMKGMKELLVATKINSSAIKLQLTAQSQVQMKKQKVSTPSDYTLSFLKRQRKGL
Experiment: qHTS Assay for Inhibitors Targeting the Menin-MLL Interaction in MLL Related Leukemias: Competition With Texas Red Labeled MLL-derived Mutant Peptide
Details: fluorescence polarization; series mostly up to 61.6 µM
Potency is read from the fitted curve at half-maximal effect; tags tell the direction and shape of the fitted curve or compound fluorescence and quenching.

Potency, inconclusive:
CCCSC1C(C)=C(C)C(=O)N1Cc1ccccc1 (stereo not given) 17.8 µM [fluorescent, side channel, partial curve]
CCOC(=O)c1c(CSC(=N)N)n(-c2ccc(C)cc2)c2cc(Br)c(OC(C)=O)cc12 2.82 µM [inhibitor, single point]
COc1ccc2[nH]c(C(=O)N3CCC(Cc4ccccc4)CC3)cc2c1 31.6 µM [fluorescent, side channel, partial curve]
CN1CCc2nc(SCC(=O)Nc3ccc(OC(F)(F)F)cc3)c(C#N)c(-c3cccs3)c2C1 12.6 µM [quencher, side channel, partial curve]
COc1cc(CNC(=O)CCCCCCC(C)C)ccc1O 39.8 µM [fluorescent, side channel, single point]
Cc1csc(NC(=O)CCC(=O)N(CC(=O)NC2CCCC2)Cc2ccccc2)n1 7.08 µM [inhibitor, full curve, poor fit]
COc1cc(OC)cc(C(=O)NCc2cc(C)nc3ccccc23)c1 3.16 µM [inhibitor, partial curve, poor fit]
O=[N+]([O-])c1cccc(CN2CCN(c3cccc4[nH]ccc34)CC2)c1 31.6 µM [quencher, side channel, single point]
CCOC(=O)c1c(NC(=O)CN2CCCCC2)sc(C)c1C 7.08 µM [fluorescent, side channel, partial curve]
Cc1ccc(-c2cc(-c3ccc(C)o3)nc(N)c2C#N)cc1 25.1 µM [quencher, side channel, single point]
CCn1c(=S)[nH]c2scc(-c3cccs3)c2c1=O 31.6 µM [quencher, side channel, single point]
C=C(C)CNC(=S)NNC(=O)CCn1c2cc(Cl)ccc2c2ccc(Cl)cc21 39.8 µM [quencher, side channel, single point]
Cc1cccc2sc(N(CCCN(C)C)C(=O)COc3ccc(Cl)cc3)nc12 11.2 µM [fluorescent, side channel, partial curve]
COC(=O)c1cc(NC(=O)c2cccc(Cl)c2)c(=O)oc1/C=C/Nc1cc(C)cc(C)c1 3.55 µM [inhibitor, single point]
Nc1ccc(C#Cc2ccc3c(=O)c4ccccc4oc3c2)cc1 7.94 µM [quencher, side channel, full curve]
